How the values were obtained:
rhCA-IX ECD [1] = target: T1, rhCA-IX ECD (Homo sapiens, UniProt Q16790); test: Western blot on purified rhCA-IX ECD; format: binding; settings: reducing and non-reducing conditions
Procedure: Nitrocellulose membranes were prepared and probed with the individual CA-IX Abs either non-purified CM (200 μL) or purified at a concentration of 5 μg/mL. Immunoreactive bands were visualized by chemiluminescence (Perkin-Elmer).

[2] = target: T2, low hCA-IX expressing sk-rc-59 cells (Homo sapiens, UniProt Q16790); test: Flow cytometry; format: cell-based; settings: 10 μg/mL mAb; low CA-IX expression
T2 construct: endogenous in cells; host or cells: sk-rc-52 (high CA-IX) and sk-rc-59 (low CA-IX) human renal carcinoma cells

sk-rc-52 cells = test: Surrogate ADC assay (Mab-Zap saporin secondary antibody); format: cell-based, human; settings: 10 nM mAb with 20 nM Mab-Zap, 72 h, Sulforhodamine; versus M75 mAb
Procedure: mAb were evaluated in a surrogate ADC assay using the high hCA-IX-expressing sk-rc-52 cells. The ADC assay was carried out using a commercially available ADC kit (atsbio.com) according to the manufacturer's instructions with some modifications. Briefly, sk-rc-52 (expressing high levels of hCA-IX) and sk-rc-59 (expressing low levels of hCA-IX) cells were seeded in RPMI/5% FBS in 96-well plates at a density of 5000 and 3000 cells/well, respectively. The next day, 10 nM of mAb was mixed with 20 nM of the Mab-Zap secondary antibody from the ADC kit, incubated (30 min, RT) prior to diluting the mixture 11× in RPMI/5% cell growth medium, and 10 μL of these mixtures were added to the cells (experiment carried out in triplicate). After 72 h of incubation (37° C., 5% CO2, humidified incubator), cell viability (bio mass) was determined using Sulforhodamine. For this procedure, 25 μl of 50% TCA was added to each well and plates were incubated (1 h, 4° C.). Plates were then washed 4× with tap water and air-dried at room temp. 100 μl of 0.4% (wt/vol in 1% acetic acid) SRB solution was added to each well and incubated (30 min, RT). […] Viability of the cells is expressed as the ratio of the mAb-ZAP secondary conjugate alone.

rhCA-IX ECD [3] = target: T1, rhCA-IX ECD; format: biochemical; settings: mAb:rhCA-IX ECD mixture ratio 1:1
Procedure: The kinetic measurements were carried out in 96-well solid black microplates (Corning) at pH 7.5 in a reaction mixture containing 25 mM MOPS, 15 mM Na2SO4, 0.5 mM EDTA and 2% (v/v) DMSO (final concentration). A final enzyme concentration of 0.5 μM for the dimer or 1 μM for the monomer was used. […] Reactions were initiated by the addition of 100 μM 4-Methylumbelliferylacetate. […] Rates were determined in the initial and ‘end portion’ of each of the curves.

[4] = target: rhCA-IX ECD monomer or dimer (Homo sapiens, UniProt Q16790)
[5] = target: rhCA-IX ECD Mixture (Monomer + Dimer) (Homo sapiens, UniProt Q16790); settings: hybridoma-derived mAb, 25° C.
Procedure: (§1) All SPR assays were carried out using a BioRad ProteOn XPR36 instrument (Bio-Rad Laboratories (Canada) Ltd. (Mississauga, ON)) with PBST running buffer at a temperature of 25° C. The polyclonal goat anti-mouse Fc (Jackson Immuno Research Laboratories Inc.) capture surface was generated using a GLC sensorchip activated by a 1:10 dilution of the standard BioRad sNHS/EDC solutions injected for 140 s at 100 μL/min in the analyte (horizontal) direction. Immediately after the activation, a 10 μg/mL solution of anti-human Fc antibody in 10 mM NaOAc pH 4.5 was injected in the analyte (horizontal) direction at a flow rate of 25 μL/min until approximately 4000 resonance units (RUs) were immobilized. Remaining active groups were quenched by a 140 s injection of 1M ethanolamine at 100 μL/min in the horizontal direction; this also ensures mock-activated interspots are created for blank referencing.
(§2) Sensorgrams were aligned and double-referenced using the buffer blank injection and interspots, and the resulting sensorgrams were analyzed using ProteOn Manager software v3.1. The double-referenced sensorgrams were fit to the 1:1 binding model to determine the rate constants for association and dissociation (ka and kd) and the corresponding affinity (KD).

rhCA-IX ECD Dimer = rhCA-IX ECD Dimer (Homo sapiens, UniProt Q16790); settings: hybridoma-derived mAb
Procedure: as §1, §2

rhCA-IX ECD Monomer = rhCA-IX ECD Monomer (Homo sapiens, UniProt Q16790); settings: hybridoma-derived mAb
Procedure: as §1, §2

rhCA-IX ECD [6] = target: T1, rhCA-IX ECD; test: Reverse Phase Protein Array (RPPA); format: binding
Procedure: Proteins were spotted in duplicate using a Genetix QArray2 contact printer with SMP3 split pins (ArrayIt) on 16 pads nitrocellulose slides (Whatman FAST) using a two pins configuration to print two identical proteins simultaneously. […] Printing was done at 20° C. and 60% constant humidity. The source plate containing native proteins was kept at about 12° C. on the robot's chilling device and the plate with denatured proteins was kept at 22° C. during printing to avoid any SDS precipitation. Once printed, the slides were stored for one hour at room temperature in a desiccator at 5 to 10% humidity, to dry the spotted proteins.
Slides were assembled in the 16-well incubation chambers (Whatman) and in the multi-slide frame (Whatman) that is a reusable holder for up to four slides. In this assembly, a liquid-tight well was created on top of each individual array pad. To block nonspecific binding, 100 μl of blocking solution (1×PBS/3% BSA/0.1% Tween20) was added to each well. Each chamber was sealed with aluminum tape to prevent evaporation and incubated (1 h, RT) with gentle agitation. The nitrocellulose pads were never allowed to dry from this step on. mAb were prepared by mixing 30 μl of each crude hybridoma supernatant with 30 μl of incubation solution (1×PBS/2% BSA/0.05% Tween20/Rabbit anti-GFP-AlexaFluor555 (0.9 μg/ml)). Blocking solution was aspired and replaced by the diluted mAb solution, incubation chambers were sealed with aluminum tape, and incubated while protected from light (2 h RT, 130 rpm shaking). mAb solutions were removed, wells were washed three times with 100 μl washing solution (1×PBS/0.1% Tween20), and the chambers were dismantled. At this point, slides were washed three times 5 minutes in 1×PBS/0.1% Tween20 followed by one 5 minutes wash in 1×PBS. After the last wash, excess liquid was removed without letting the nitrocellulose dry. To detect the mAb bound to their antigen, 270 μl of the secondary antibody Cy5-conjugated AffiniPure F(ab′)2 fragment donkey anti-mouse IgG (H+L) (1 μg/ml in 1×PBS/2% BSA/0.05% Tween20, was added. The slide was then covered with a plastic cover-slip and incubated protected from light in a high humidity chamber (RT) for 45 minutes, with shaking (100 rpm). The slides were then washed (as described above) and dried by centrifugation in a vertical position.
To normalize for ‘slide-to-slide’ signal intensity variations, the binding intensity of each mAb was divided by the median of the entire slide mAb binding intensities to native proteins.
The result is the mAb binding affinity in fluorescence unit (FU) above median. Antibody-antigen binding was considered specific when the binding affinity value was at least 2 times above the binding affinities standard deviation of all spotted proteins.

[7] = Purified Antigen, binding affinity in fluorescence unit above median

B1: 12H8: hybridoma-derived mouse IgG1, κ anti-CA-IX mAb; VL SEQ ID NO:23, VH SEQ ID NO:24; binds PG-like domain (antibody, V domains shown)
VH: QIQLVQSGPELKKPGETVKISCKASGYTFTNYGMNWVQQAPGKGLKWMGWINTYTGEPTYADDFKGRFAFSLETSASTAYLQINNLKNEDMATYFCARGGIATPTSYWGQGTTLTVSS
VL: DVVMTQTPLTLSVTIGQPASISCKSSQSLLDSDGKTYLNWLLQRPGQSPKRLIYLVSKLDSGVPDRFTGSGSGTDFTLKISRVEAEDLGVYYCCQGTHFPWTFGGGTKLEIK
modifications: mAb 12H8 VH; mAb 12H8 VL
detection of rhCA-IX by Western blot (rhCA-IX ECD [1]; after purification of the mAb): able to detect
detection of rhCA-IX ECD by Western blot (rhCA-IX ECD [1]; non-purified mAb (CM)): did not detect
binding to sk-rc-59 cells (flow cytometry) [2]: virtually no binding was detected
reduction of cell viability (sk-rc-52 cells): equal to or better than the M75 mAb
% rhCA-IX ECD Activity (rhCA-IX ECD [3]): 102.8%
Comments (rhCA-IX ECD [3]): No inhibition
Data 1 (rhCA-IX ECD [3]): 102.8
competition for binding (epitope binning) [4]: do not compete
ka [5]: 1.13 × 10^6
kd [5]: 9.70 × 10^−12
ka (rhCA-IX ECD Dimer): 2.27 × 10^6
kd (rhCA-IX ECD Dimer): 3.22 × 10^−4
kd (rhCA-IX ECD Monomer): Biphasic
Denatured (D) (rhCA-IX ECD [6]; Antigen in protein mixture): 4.15 FU
Native (C) (rhCA-IX ECD [6]; Antigen in protein mixture): 50.26 FU
mAb binding specificity (rhCA-IX ECD [6]; Antigen in protein mixture): rhCA-IX ECD
Denatured (B) (rhCA-IX ECD [6]; [7]): 142.32 FU
Native (A) (rhCA-IX ECD [6]; [7]): 158.01 FU
